In PubChem BioAssay AID1346428 (National Center for Advancing Translational Sciences (NCATS), 2018):
Where “and” joins values, the source holds several entries; their conditions need not be identical. Equal values may be shown once. Screen size: about 48,000 compounds; about 1,200 (2.5%) were called active. Inconclusive results (about 2%) are left out.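 Rule for the calls: active = activation of at least 60% and not above a set upper limit (about 1 call in 100 departs from these limits); inconclusive = activation of 40% to 60%, or above that upper limit; inactive = activation under 40%.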 This is one part of the list.

Each molecule was assayed against Probable G-protein coupled receptor 32 (Homo sapiens) (UniProt O75388) (assay: qHTS for Agonists of Human Resolvin D1 Receptor DRV1). Conditions: CHO-K1 GPR32 beta-arrestin PathHunter luminescence, 90 min; at 76.9 µM; hits give high values; zero percent set by DMSO-only wells.
Source text: Endogenous resolution of inflammation is known to be transduced through various GPCRs and their natural mediators of lipid nature. Resolvin D1 (RvD1) is one of the active players in resolution of acute inflammation through regulation of anti-inflammatory pathways; it is known to enhance phagocytosis of human macrophages, limits neutrophils infiltration, etc. […] The search for GPR32-activating small molecules with anti-inflammatory effects similar to its natural omega-3 derivative ligand in order to use them as research tools for further studies of inflammation and its resolution was the goal of this screening project. For primary screening assay, we used CHO-K1 GPR32 beta-arrestin cell line (DiscoveRx, #93-0321C2A) and the PathHunter(R) beta-Arrestin Assay (DiscoveRx) which measures recruitment of beta-arrestin to the GPR32 and generates chemiluminescent signal. These engineered cells stably transfected with GPR32 co-express GPR32-fused small 42-amino acid fragment of beta-Gal called ProLinktrade mark, and […] -tagged beta-Arrestin fusion protein. When GPR32 is activated by a ligand, it stimulates binding of beta -Arrestin to ProLink-tagged GPR32, and two parts of beta-Gal complement forming a functional enzyme. Upon substrate (PathHunter(R) Detection reagent) addition, beta-Gal hydrolyzes it and generates a chemiluminescent signal.
The cells were thawed and plated in thawing media containing F-12 HAM (Invitrogen, #11765-054), 10% FBS (Invitrogen, #10082), 1x Glutamine, and 1x Pen/Strep onto the 175-mm flask for 24 hours. Then, thawing media was replaced with Growth media which contains 800microg/mL Geneticin (Invitrogen, #10131) and 300microg/mL Hygromycin B (Invitrogen, #10687) in addition to described above. For the assay, the cells were harvested at ~80% confluent stage with Cell Dissociation buffer (Gibco, #13151), and seeded at 2,500 cells/ 3microL/well in assay media (PathHunter(R) Cell Plating Reagent, DiscoverX, #93-0563R1B) using MultiDrop Combi dispenser (Thermo Scientific, Logan, UT) onto white solid bottom tissue culture-treated 1536-well plates (Greiner # 789173-F) and allowed to attach overnight at 37 degrees C, 95% humidity, 5% CO2, . Next, 23nL/well of compound solutions in DMSO were added with a Pin Tool (Kalypsis, San Diego, CA) to the assay plates. As the basal control (EC0), 23 nL/well of DMSO was used on each plate. The cells were incubated in the presence of compounds or DMSO for 90 minutes at 37 degrees C, 5% CO2. Subsequently, 1.5microL/well of PathHunter(R) Detection Reagent prepared per the manufacturer's instructions was added to the assay plates with BioRAPTR FRDtrade mark dispenser (Beckman Coulter, San Francisco, CA) and incubated for 1 hour at ambient temperature prior to the measurement of the luminescent signal on ViewLux(R) uHTS Microplate Imager (Perkin Elmer, Waltham, MA).

SMILES	activation
CCCN1CCc2cc(O)cc3c2[C@H]1Cc1ccc(O)c(O)c1-3	inactive: 20.9%
CN1C(=O)CN=C(c2ccccc2)c2cc([N+](=O)[O-])ccc21	inactive: -4.68%
Cc1ccc(-n2c(/C=C\c3ccc(F)c(F)c3)nc3ccccc3c2=O)c(C)c1	inactive: 20.2%
C#CCN[C@H](C)Cc1ccccc1	inactive: 4.04%
CCCN(CCC)[C@@H]1CCc2cccc(O)c2C1	inactive: 3.55%
CN1C(=O)NC(=O)C(C)(C2=CCCCC2)C1=O (stereo not drawn)	inactive: 12.9%
CC(CC(C(N)=O)(c1ccccc1)c1ccccc1)N(C)C (stereo not drawn)	inactive: 11.8%
Cc1ccccc1-c1nn2c(=O)cc(CN3CCN(C(=O)COc4ccccc4Cl)CC3)nc2s1	inactive: 35.2%
NCc1cc(=O)[nH]o1	inactive: 10.2%
COC(=O)c1cncn1C(C)c1ccccc1 (stereo not drawn)	inactive: 4.14%
C[C@H]1C(=O)O[C@@H]2CCN3CC=C(COC(=O)[C@](C)(O)[C@]1(C)O)[C@H]23	inactive: -4.84%
Cc1cccc(OCC(=O)N2CCN(Cc3cc(=O)n4nc(-c5ccccc5Cl)sc4n3)CC2)c1	inactive: -6.01%
O=[N+]([O-])/N=C1\NCCN1Cc1ccc(Cl)nc1	inactive: -10.2%
CC(=O)OCC1=C(C(=O)O)N2C(=O)[C@@H](N)[C@H]2SC1	inactive: -5.99%
CN(C)C(=S)SSC(=S)N(C)C	inactive: -2.07%
Cc1ccc(OCC(=O)N2CCN(Cc3ccc(F)cc3)CC2)cc1	inactive: -14.5%
Cc1ccc(C(C)(C)C)c(OCC(=O)Nc2ccc(Cl)cc2C(=O)c2ccccc2)c1	inactive: -2.1%
COc1cccc(-n2c(/C=C\c3ccc(Cl)cc3)nc3ccccc3c2=O)c1	inactive: -19.9%
c1cnc2c(c1)ncn2C1CCNCC1	inactive: -6.11%
CC(C)(C)NCC(O)c1ccccc1Cl (stereo not drawn)	inactive: -6.05% and inactive: -6.61%
CC1(C(=O)O)C2CCC(O2)C1(C)C(=O)O (stereo not drawn)	inactive: -27.6%
Oc1ccc([C@H]2CNCc3c2ccc(O)c3O)cc1O	inactive: -6.2%
O=C(COc1ccc(Br)cc1)Nc1ccc(Cl)cc1C(=O)c1ccccc1	inactive: -0.281%
C#C[C@]1(O)C=C[C@H]2[C@@H]3CCC4=CC(=O)CC[C@@H]4[C@H]3CC[C@@]21CC	inactive: 27.1%
Cc1cc(C)cc(NC(=O)CN2C(=O)CN=C(c3ccccc3)c3cc(Cl)ccc32)c1	inactive: -31.3%

SMILES	activation
Sc1ccccc1Cl	inactive: -20.5%
CCN(CC)C(=O)[C@@H]1C=C2c3cccc4[nH]cc(c34)C[C@H]2N(C)C1	inactive: -25.3%
O=c1c2ccccc2nc(/C=C/c2cccc3ccccc23)n1-c1ccc(Cl)cc1	inactive: -8.32%
C1CCC(NC2CCCCC2)CC1	inactive: 8.73%
CCC1(c2cccc(O)c2)CCCCN(C)C1 (stereo not drawn)	inactive: 8.78%
CS(=N)(=O)CC[C@H](N)C(=O)O (stereo partly drawn)	inactive: -9.55%
C[C@@H]1CC[C@H]2[C@@H](C)C(=O)O[C@@H]3O[C@@]4(C)CC[C@@H]1[C@]32OO4	inactive: 14.6%
COc1cc(C[C@@H](C)N)c(OC)cc1Br	inactive: -1.05%
CC(C)Oc1cccc(NC(=O)c2ccccc2C(F)(F)F)c1	inactive: 36.4%
CCC12CN3CC(CC)(CN(C1)C3c1c(C)[nH]c(=O)[nH]c1=O)C2=O (stereo not drawn)	inactive: -2.18%
COc1cc(OC)cc(C(=O)Nc2ccc(Cl)cc2C(=O)c2ccccc2Cl)c1	inactive: -6.45%
O=C(Nc1ccc(Br)cc1C(=O)c1ccccc1Cl)c1ccc(Br)cc1	inactive: 6.62%
NCCc1c[nH]c2ccc(O)cc12	inactive: -1.25%
CCN(C(C)=O)c1cccc(-c2ccnc3c(C#N)cnn23)c1	inactive: -8.94%
Cc1ccccc1-c1nc(CN2C(=O)CN=C(c3ccccc3)c3ccccc32)c(C)o1	inactive: -20.3%
COc1ccccc1-c1nn2c(=O)cc(CN3CCN(C(=O)COc4ccccc4Cl)CC3)nc2s1	inactive: -10.9%
CCc1ccc(-n2nc(C)c3c2NC(=O)CSC3c2ccc(C(=O)OC)cc2)cc1 (stereo not drawn)	inactive: -0.0879%
O=[N+]([O-])c1ccc([As](=O)(O)O)cc1	inactive: 7.74%
CC[N+](CC)(CC)CC	inactive: 8.63% and inactive: -1.07%
CCOCCOC(C)=O	inactive: 6.37%
COc1cc2[nH]c(=O)n(-c3ccc(C)cc3)c(=O)c2cc1OC	inactive: -10.6%
CCC(COC(=O)c1cc(OC)c(OC)c(OC)c1)(c1ccccc1)N(C)C (stereo not drawn)	active: 97.2%
CCCN(CCC)CCc1ccc(O)c(O)c1	inactive: -11.2%
Cc1ccc2nc(NC(=O)c3cccn(Cc4ccccc4F)c3=O)sc2c1	inactive: 44.6%
Cc1ccc2c(=O)n(-c3cccc(Cl)c3)c(=O)[nH]c2c1	inactive: -31.2%

SMILES	activation
COc1ccc2c(c1)/C(=C/c1cnc[nH]1)C(=O)N2	inactive: -10.4%
Ic1ccccc1CNC1C2CCN(CC2)C1C(c1ccccc1)c1ccccc1 (stereo not drawn)	inactive: 31.3%
O=C1c2ccccc2C(=O)c2ccccc21	inactive: -17.9%
Nc1ccccc1	inactive: -0.642%
O=C1CC(c2ccc(C(F)(F)F)cc2)c2c(c3ccccc3oc2=O)O1 (stereo not drawn)	inactive: 6.27%
Cc1cccc(Cn2cccc(C(=O)Nc3nnc(C)s3)c2=O)c1	inactive: 9.41%
Cc1c(Cl)c(=O)oc2cc(OP(=O)(OCCCl)OCCCl)ccc12	inactive: -1.47%
O=C(Nc1ccc2c(c1)OCCO2)c1cccn(Cc2ccccc2)c1=O	inactive: -0.395%
CC[N+]1(CCOC(=O)C(O)(c2ccccc2)c2ccccc2)CCCCC1	inactive: -7.19%
C[N+]1(C)[C@@H]2CC[C@H]1CC(OC(=O)C(CO)c1ccccc1)C2 (stereo partly drawn)	inactive: 17%
Cc1ccc(-c2nc(CN3C(=O)CN=C(c4ccccc4Cl)c4cc(Cl)ccc43)c(C)o2)cc1	inactive: -26.8%
Clc1ccc(C(OCCN2CCCCC2)c2ccccc2)cc1 (stereo not drawn)	inactive: 37.6%
CCCSP(=O)(OCC)SCCC	inactive: 18.9%
COC(=O)c1ccccc1NC(=O)c1cccn(Cc2cccc(Cl)c2)c1=O	inactive: -2.83%
NCCc1c[nH]c2ccccc12	inactive: 6.46%
CCO/N=C(\CC)C1=C(O)CC(c2c(C)cc(C)cc2C)CC1=O (stereo not drawn)	inactive: 28.8%
CCc1ccc(C2CCNCC2)cc1	inactive: 2.89%
CN1C2CCC1CC(OC(c1ccccc1)c1ccccc1N)C2 (stereo not drawn)	inactive: 4.53%
Cc1cccc(C)c1NC1=NCCCS1	inactive: 3.17% and inactive: 2.45%
O=C(Nc1ccccc1)N(Cc1ccc2c(c1)OCO2)C1CCN(Cc2ccccc2)CC1	inactive: -6.13%
Nc1ccc(N)cc1	inactive: -65.2%
O=C(Nc1ccon1)c1cccn(Cc2cccc([N+](=O)[O-])c2)c1=O	inactive: -18.1%
Clc1ccc(N2CC3CCC(C2)N3)nn1	inactive: 3.77%
O=C(Nc1ccc2c(c1)OCO2)c1cccn(Cc2ccccc2)c1=O	inactive: 49%
CCOC(=O)C1(c2ccccc2)CCN(CCc2ccc(N)cc2)CC1	inactive: 5.2%

SMILES	activation
CCNC(=O)[C@H]1O[C@@H](n2cnc3c(N)ncnc32)[C@H](O)[C@@H]1O	inactive: 3.66%
CC(=O)OCC1=C(C(=O)O)N2C(=O)[C@@H](NC(=O)CCC[C@@H](N)C(=O)O)[C@H]2SC1	inactive: 10.3%
CN1C(=O)COc2c(C(=O)NC3CN4CCC3CC4)cc(Cl)cc21 (stereo not drawn)	inactive: -2.65%
O=C(Nc1ccc(F)c(Cl)c1)N(Cc1ccc2c(c1)OCO2)C1CCN(Cc2ccccc2)CC1	inactive: -14.4%
Cc1ccc(S(=O)(=O)N[C@@H](CCCCN)C(=O)CCl)cc1	inactive: -17.2% and inactive: -21.8%
CCCN1CCC[C@@H](c2cccc(O)c2)C1	inactive: -0.124%
O=C1CN=C(c2ccccc2)c2cc([N+](=O)[O-])ccc2N1	inactive: -17.7%
CCOc1ccc2nc(NC(=O)c3cccn(Cc4ccc(C)cc4)c3=O)sc2c1	inactive: -3.71%
ClCCN1CCCC1	inactive: -6.14%
CCCCCCCCCCCCCC(=O)O[C@@H]1[C@@H](C)[C@@]2(O)[C@@H](C=C(CO)C[C@@]3(O)C(=O)C(C)=C[C@@H]23)C2C(C)(C)[C@@]21OC(C)=O (stereo partly drawn)	inactive: -57.3%
N[C@@H](Cc1ccc(Oc2cc(I)c(O)c(I)c2)c(I)c1)C(=O)O	inactive: 5.18%
CC(C)NC(C)C	inactive: 9.56%
NC(=O)CN1CCCC1=O	inactive: -24.4% and inactive: -10.9%
O=c1[nH]c2ccccc2n1C1CCNCC1	inactive: -10.4%
Cc1ccc(OCC(=O)Nc2ccc(Cl)cc2C(=O)c2ccccc2)c(Br)c1	inactive: -11.3%
O=P1(NCCCl)OCCCN1CCCl (stereo not drawn)	inactive: 6.78%
CCc1ccc(-n2nc(C)c3c2NC(=O)CSC3c2ccccc2C)cc1 (stereo not drawn)	inactive: 16.5%
O=S(=O)(c1ccc(Cl)cc1)c1ccc(Cl)cc1	inactive: 21.6%
COC(=O)C(Cl)C(=O)OC	inactive: 3.43%
CC(C)c1c(CN(C)C(C)Cc2ccccc2)n(C)n(-c2ccccc2)c1=O (stereo not drawn)	inactive: -23.5%
COc1ccc(NC(=O)CN2C(=O)C(C)N=C(c3ccccc3)c3ccccc32)cc1OC (stereo not drawn)	inactive: -12.2%
Cc1ccc(Cn2cccc(C(=O)Nc3nc4ccc(C)cc4s3)c2=O)cc1	inactive: 12.6%
N#CCCN	inactive: 5.71%
